# Source: article PMC4336329 (PLoS ONE, 2015)
# The whole screen tested about 310,000 compounds, of which about 14,000 (4.5%) showed an effect of 50% or more. Effects have a minus sign here. Some of the results follow.
# Molecular target: human ether-à-go-go-related gene (hERG) potassium channel (human, UniProt Q12809)
# Experiment: primary screen, population patch clamp on CHO cells stably expressing hERG
# 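Note: peak tail current of the secondary pulse compared with the same well before compound.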
# human ether-à-go-go-related gene (hERG) potassium channel, sequence (Q12809 whole entry, looked up): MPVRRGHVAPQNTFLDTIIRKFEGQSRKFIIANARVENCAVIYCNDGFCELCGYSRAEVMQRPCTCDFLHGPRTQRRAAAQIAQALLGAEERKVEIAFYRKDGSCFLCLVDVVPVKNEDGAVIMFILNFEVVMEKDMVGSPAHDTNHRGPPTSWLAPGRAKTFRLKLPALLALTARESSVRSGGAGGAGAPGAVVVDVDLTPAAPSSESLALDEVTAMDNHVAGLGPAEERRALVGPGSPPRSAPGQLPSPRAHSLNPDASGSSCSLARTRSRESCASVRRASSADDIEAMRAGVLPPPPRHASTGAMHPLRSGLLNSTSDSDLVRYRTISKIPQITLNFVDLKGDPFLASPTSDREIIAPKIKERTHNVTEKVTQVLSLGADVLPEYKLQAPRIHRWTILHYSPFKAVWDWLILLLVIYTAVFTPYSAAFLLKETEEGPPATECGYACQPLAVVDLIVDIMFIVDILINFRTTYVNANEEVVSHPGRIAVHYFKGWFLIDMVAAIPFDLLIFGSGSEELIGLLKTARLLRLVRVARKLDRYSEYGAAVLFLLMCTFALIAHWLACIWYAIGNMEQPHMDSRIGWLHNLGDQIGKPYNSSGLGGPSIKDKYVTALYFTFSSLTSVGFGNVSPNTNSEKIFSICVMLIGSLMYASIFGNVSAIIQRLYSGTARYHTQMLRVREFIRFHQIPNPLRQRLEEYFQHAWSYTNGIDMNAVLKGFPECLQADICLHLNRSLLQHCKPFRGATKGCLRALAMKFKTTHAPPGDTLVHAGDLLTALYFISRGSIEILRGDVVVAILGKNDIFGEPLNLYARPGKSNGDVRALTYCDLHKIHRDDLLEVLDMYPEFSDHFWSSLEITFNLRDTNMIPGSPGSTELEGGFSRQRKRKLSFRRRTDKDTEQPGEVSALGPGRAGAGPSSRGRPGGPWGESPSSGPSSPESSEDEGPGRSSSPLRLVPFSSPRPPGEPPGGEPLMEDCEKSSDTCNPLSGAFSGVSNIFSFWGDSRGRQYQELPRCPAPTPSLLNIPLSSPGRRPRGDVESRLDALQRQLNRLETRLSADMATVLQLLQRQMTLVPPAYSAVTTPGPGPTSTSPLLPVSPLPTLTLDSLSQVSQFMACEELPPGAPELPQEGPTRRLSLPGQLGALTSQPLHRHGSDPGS
row,Structure (SMILES),"hERG current change (%, negative = inhibition) at 10uM"
1,COCc1c(C(=O)OCC(=O)Nc2ccc(OC(F)F)cc2)oc2ccccc12,-29.8%
2,CCOC(=O)c1c(C=O)c2ccccc2n1Cc1ccccc1F,-2.35%
3,Cl.c1ccc(-c2ccc(OCCN3CCOCC3)cc2)cc1,3.74%
4,O=c1c(-c2ccco2)[n+]([O-])c2ccccc2n1OCc1c(F)cccc1F,20.5%
5,COc1ccc(-c2nnc(SCC(=O)NCCC(C)C)nc2-c2ccc(OC)c(OC)c2)cc1OC,-38.3%
6,c1ccc(Oc2nnc(-c3cccs3)c3ccccc23)cc1,-5.87%
7,N#C/C(=C\c1cccc2ccccc12)c1nn(-c2ccccc2)c(N)c1C#N,3.7%
8,Cc1nc(C(F)(F)F)c(C(=O)N/N=C(\N)c2ccccn2)s1,9.32%
9,C/C(N)=C(/C#N)C(=O)COC(=O)CCSc1ccccc1,13%
10,COc1ccc(N=Cc2sc3ccccc3c2Cl)cc1,15%
11,CCN1CCN(c2ccc(S(=O)(=O)N3CCCCC3)cc2NC(=O)/C=C/c2ccc([N+](=O)[O-])cc2)CC1,-70.8%
12,Cl.Nc1cccc2[nH]c(C(F)(F)F)nc12,20.5%
13,COC(=O)c1cn(Cc2ccccn2)c(=O)c2ccccc12,2.37%
14,O=C(NCc1ccc(OC(F)(F)F)cc1)c1ccc2c(c1)S(=O)(=O)c1ccccc1C2=O,-0.0191%
15,O=c1[nH]c(=S)n(-c2ccccc2F)c(O)c1C=NCCN1CCNCC1,21.9%
16,Cc1cccc(CNCCc2ccccc2)n1.Cl,-17.1%
17,Cc1cc(C)c(C(=O)COC(=O)C2CCN(c3ccc(C(F)(F)F)cn3)CC2)cc1C,6.63%
18,CCOC(=O)c1c(NC(=O)CSc2nnc(C)s2)sc2c1CCN(C)C2,-46.4%
19,Cc1cc(/C=C(\C#N)C(=O)NCc2ccco2)c(C)n1-c1ccc(C(=O)O)cc1,15.8%
20,CC(C)Oc1ccc(C(=O)CCN2CCCCC2)cc1,-20.9%
21,O=C(c1cccnc1)N1CCN(S(=O)(=O)c2ccc3ccccc3c2)CC1,-34.9%
22,CN(C)S(=O)(=O)c1ccc2c(c1)nc(CCC(=O)NCc1ccc(Cl)cc1)n2C,-30.5%
23,CCOc1ccc(NC(=O)C(Cc2ccccc2)N2C(=O)c3cccc4cccc(c34)C2=O)cc1 (stereo not drawn),16.5%

row,Structure (SMILES),"hERG current change (%, negative = inhibition) at 10uM"
1,O=C1CS/C(=N\NC(=O)c2ccccc2)N1,15.6%
2,CCCn1cnc2cc(NCc3ccc(Br)cc3)ccc21,-73.9%
3,CCOC(=O)C1(CC2CCCCO2)CCN(Cc2nc3ccccc3[nH]2)CC1 (stereo not drawn),-19.5%
4,CCOc1ccc(S(=O)(=O)NC(Cc2c[nH]c3ccccc23)C(=O)O)cc1 (stereo not drawn),10.4%
5,N#Cc1ccc(CSc2nnc(Nc3ccccc3)s2)cc1,10.5%
6,O=C(NCC(c1ccco1)N1CCCCC1)c1cc2c(s1)CCCC2 (stereo not drawn),-23.6%
7,Cc1cc(NC(=O)c2cnn3c(C(F)F)cc(-c4ccccc4)nc23)no1,-8.36%
8,COc1cc(/C=N/NC(=S)NC2CC3C=CC2C3)cc(OC)c1OC (stereo not drawn),-18%
9,CC(C)CC(=O)NC(=S)Nc1cc(C(F)(F)F)ccc1N1CCOCC1,1.41%
10,CC1CCCCC1NC(=O)Cn1[nH]c(=O)c2ccccc2c1=O (stereo not drawn),0.493%
11,Fc1ccccc1COc1ccc(/C=N/NC(=S)NCc2ccccc2)cc1,5.68%
12,COc1ccc(CN2C(=O)c3cccnc3C2=O)cc1S(=O)(=O)N1CCOc2ccc(Cl)cc21,1.2%
13,Cc1ccc2c(c1)-c1c(ssc1=S)C(C)(C)N2C(=O)CN1C(=O)c2ccccc2C1=O,14.8%
14,CC(NCc1cccs1)C(=O)Nc1cc(Cl)cc(Cl)c1 (stereo not drawn),-2.04%
15,Cc1ccc2occ(/C=N/NC(N)=S)c(=O)c2c1,15%
16,CCCCCCN1C=C/C(=C\C=C(C#N)C#N)c2ccccc21,-37.4%
17,CN1C(=O)NC2C1N(S(C)(=O)=O)CCN2S(C)(=O)=O (stereo not drawn),17.8%
18,Cc1ccccc1NC(=O)Cn1c([N+](=O)[O-])cnc1C,18.7%
19,Cc1ccc(-c2noc(-c3ccccc3C(=O)N3CCCC3)n2)cc1,-32.3%
20,Cc1c(NS(=O)(=O)c2cc(C(=O)NCc3cccnc3)cc(Cl)c2Cl)c(=O)n(-c2ccccc2)n1C,-31.3%
21,Cc1cc(=O)n2nc(N3CCC(C(=O)Nc4c(F)c(F)c(F)c(F)c4F)CC3)sc2n1,-18.5%
22,COc1ccc(/C=N/NC(=O)CN(C2=NS(=O)(=O)c3ccccc32)c2ccccc2)cc1OC,-9.44%
23,CC(C(=O)O)N1CCCCC1.Cl (stereo not drawn),-21.5%

row,Structure (SMILES),"hERG current change (%, negative = inhibition) at 10uM"
1,COc1ccc(C(=O)COc2ccccc2C#N)cc1,2.58%
2,O=c1nc(-c2ccccc2)n(-c2ccccc2)[nH]1,1.69%
3,Cc1ccc(C(=O)c2c3ccc(C(F)(F)F)cc3[n+]([O-])n2CCC[NH3+])cc1.O=C([O-])C(F)(F)F,-75%
4,CCn1c(=O)n(CC)c2cc(N3CCCC3)c(NC(=O)c3ccccc3OC)cc21,-4.68%
5,O=C(Cn1c(=O)sc2ccccc21)NCc1ccccn1,4.49%
6,CCOc1cc(CNc2ccccc2)cc(Br)c1OCc1ccccc1F,15.3%
7,O=C(CN1CCCCC1)Nc1cccc(Br)c1,-39%
8,O=c1[nH]c2cccc(F)c2n2cccc12,1.61%
9,COCCCNc1nc(N)c([N+](=O)[O-])c(NCC2CCCO2)n1 (stereo not drawn),18.1%
10,Br.COc1ccc(C2=CSC(/N=C/c3ccc(F)cc3)=NN2)cc1,5.78%
11,CCC1CCCCN1C(=O)c1cc(-c2ccc(Cl)c(Cl)c2)on1 (stereo not drawn),-17.6%
12,COC(=O)c1c(C)[nH]c(C(=O)/C=C/c2ccccc2Cl)c1C,-23.8%
13,CC1(C)OC(=O)C(=CNn2cnc3ccccc3c2=O)C(=O)O1,20%
14,O=C1NC(=O)C2(COC(c3cccc([N+](=O)[O-])c3)OC2)S1 (stereo not drawn),20.5%
15,O=C(NC(=S)Nc1cnc2ccccc2c1)c1ccccc1,10.8%
16,CCCn1c2ccc(C)cc2c2nnc(SCCN3CCOCC3)nc21,-32.5%
17,Cc1ccc(C(=O)O/N=C/C2=C(Cl)c3ccccc3CC2)cc1,12.7%
18,O=C(Cn1ccc([N+](=O)[O-])n1)NCCc1c[nH]c2ccccc12,8.49%
19,O=S(=O)(c1ccc(C2CCCCC2)cc1)N1CCOCC1,-6.57%
20,CN(Cc1nc2ccccc2n1C)S(=O)(=O)c1ccc(F)cc1,-16.9%
21,O=C(NCC1CCCO1)c1ccc[nH]1 (stereo not drawn),12.3%
22,CCN1CCN(c2ccc(NC(C)=O)cc2Cl)CC1,-1.19%
23,O=C1CNC(=O)/C(=C/c2cccs2)N1,11.2%

row,Structure (SMILES),"hERG current change (%, negative = inhibition) at 10uM"
1,CCCCn1c(N)c(N(CCOC)C(=O)CCC2CCCCC2)c(=O)[nH]c1=O,-0.603%
2,CC(c1ccon1)N(C)Cc1cn[nH]c1-c1ccc(-c2ccccc2)cc1 (stereo not drawn),0.991%
3,CS(C)(=O)=NS(=O)(=O)c1ccc(Cl)cc1,3.24%
4,Cc1cc(C)cc(OCCOc2cccc(C=C3C(=O)NC(=O)NC3=O)c2)c1,20.3%
5,CC1CCCCN1C(=O)Nc1cccc(Cl)c1 (stereo not drawn),-16%
6,CCOC(=O)Cn1c(C)[n+](CC(=O)c2ccccc2)c2ccccc21.[Br-],22.7%
7,CC(OC(=O)CN1C(=O)c2ccccc2C1=O)C(=O)NC1CCCCC1C (stereo not drawn),7.49%
8,c1ccc(CSc2nccc(-c3ccco3)n2)cc1,-4.16%
9,CS(=O)(=O)NNP(=O)(NNS(C)(=O)=O)NC(=O)c1ccccc1,-44.4%
10,COc1nnc(OC)c2ccccc12,-2.81%
11,CCC(Sc1ncccn1)C(=O)Nc1cc(C)on1 (stereo not drawn),10.1%
12,Cc1cccc(NC(=O)C2CCN(S(=O)(=O)c3cccc4nonc34)CC2)c1,-0.218%
13,CC1(C)CC(=O)C=C(Nc2ccccc2N)C1,1.24%
14,CC(OC(=O)CNC(=O)c1ccco1)C(=O)Nc1ccc(Cl)cn1 (stereo not drawn),-11.4%
15,CSc1ccccc1NC(=O)COC(=O)c1c[nH]c(=O)[nH]c1=O,6.94%
16,CCOc1ccc(NS(=O)(=O)c2cc(C(=O)NCCCN3CCCC3=O)ccc2C)cc1,6.64%
17,Cc1ccc(-c2nc3ccccc3[nH]2)cc1NC(=O)c1sc2cc(Cl)ccc2c1Cl,11.6%
18,Cc1cc(C)c(C)c(S(=O)(=O)N2CCN(c3ccccn3)CC2)c1C,13.7%
19,CC(CC(=O)Nc1cccc(F)c1)S(=O)(=O)c1ccc2c(c1)NC(=O)CO2 (stereo not drawn),-14.8%
20,COc1ccc2c(c1)CCC(C)N2S(=O)(=O)c1ccc(C2CNC(=O)C2)cc1 (stereo not drawn),-26.2%
21,Cc1nn(-c2ccc(F)cc2)c(Cl)c1/C=N/NC(=O)c1cccc(S(=O)(=O)N2CCCC2)c1,3.29%
